We go through 23 compounds from PubChem BioAssay AID2202238 (Ras Initiative Chemistry Research Team, Frederick National …, 2025).

The other results are listed elsewhere or left out. Shown are side measurements of this screen, not its main read-out; they come without a call.

The target of the test is GTPase KRas (Homo sapiens) (UniProt P01116). Description: Covalent labelling of cysteine mutants by fragments, read by mass spectrometry (AID 2202238). Set-up: protein at 5 µM with 500 µM competing thiol for 1.5 h. As to conditions: KRAS G12D cysteine mutants, disulfide tethering, MALDI-TOF labeling, stronger effect = higher value, fragment at 500 µM.
Sequence of UniProt P01116 (P01116 whole entry, looked up, the tested form may be a part): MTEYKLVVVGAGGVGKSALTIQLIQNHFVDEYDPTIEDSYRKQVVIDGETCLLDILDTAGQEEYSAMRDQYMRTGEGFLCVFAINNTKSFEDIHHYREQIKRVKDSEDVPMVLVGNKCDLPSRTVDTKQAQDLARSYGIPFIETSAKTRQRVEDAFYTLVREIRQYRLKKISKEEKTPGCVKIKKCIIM
The mark [1] stands for this setting: measured here: G75C mutant labeling.
Setting [2] is: measured here: H94C mutant labeling.
Where [3] appears, read: measured here: I36C mutant labeling.
The mark [4] stands for this setting: measured here: L120C mutant labeling.
[5] abbreviates: measured here: M67C mutant labeling.
Setting [6] is: measured here: M72C mutant labeling.
Where [7] appears, read: measured here: N86C mutant labeling.
[8] abbreviates: measured here: P121C mutant labeling.
The mark [9] stands for this setting: measured here: S122C mutant labeling.
Setting [10] is: measured here: S136C mutant labeling.
Setting [11] is: measured here: G60C mutant labeling.
Setting [12] is: measured here: N26C mutant labeling.

As for `O=C(CCS)N(Cc1ccc(-c2ccccc2C(F)(F)F)o1)C1CC1`, the percent labeling turned out to be 24.8% under setting [1]; 36.5% under setting [2]; 21% under setting [3]; 14.3% under setting [4]; 26.7% under setting [5]; 60.5% under setting [6]. The same compound came in with a percent labeling under setting [7] of 20.1%, a percent labeling under setting [8] of 25.5%, a percent labeling under setting [9] of 10.1% and a percent labeling under setting [10] of 50.4%.
For the compound `O=C(NCCS)c1nc(-c2cccs2)n(-c2cccc(F)c2)n1`, the percent labeling was determined as 12.3% under setting [11]; 8.6% under setting [1]; 7.8% under setting [2]; 4.7% under setting [3]; 14.5% under setting [4]; 6.2% under setting [5]. The compound also displayed a percent labeling under setting [6] of 23.9%; a percent labeling under setting [12] of 23.1%; a percent labeling under setting [7] of 6.4%; a percent labeling under setting [8] of 5.7%; a percent labeling under setting [9] of 3.9%; a percent labeling under setting [10] of 18.3%.
`NC(=O)C1CCC2(CC1)CC(NC(=O)CCS)C2` (stereo not drawn): the percent labeling reads like this: under setting [1], 11.1%; under setting [2], 37%; under setting [3], 37.9%; under setting [4], 30.1%; under setting [5], 35.6%; under setting [6], 21.8%. This compound also showed a percent labeling under setting [7] of 26%, a percent labeling under setting [8] of 35.7%, a percent labeling under setting [9] of 41.8% and a percent labeling under setting [10] of 49.7%.
With `O=C(CCS)Nc1cc(Br)ccc1C(F)F`, the percent labeling is, setting by setting: under setting [1], 11%; under setting [2], 70.9%; under setting [3], 23.3%; under setting [4], 20.2%; under setting [5], 21.1%; under setting [6], 44.8%. Moreover, the percent labeling was determined as 14.1% under setting [7], 21.6% under setting [8], 14.2% under setting [9] and 32.5% under setting [10].
On to `O=C(NCCS)C1CCOCC12CCCCC2` (stereo not drawn), for which the percent labeling runs as follows: under setting [11], 42.6%; under setting [1], 16%; under setting [2], 34.7%; under setting [3], 23.6%; under setting [4], 30.5%; under setting [5], 34.9%. Besides, the percent labeling runs as follows: under setting [6], 20.9%; under setting [12], 34.8%; under setting [7], 30%; under setting [8], 33.1%; under setting [9], 31.3%; under setting [10], 51%.
Regarding `O=C(NCCS)c1cccc(-n2ccnc2)n1`, the percent labeling was 33.5% under setting [11]; 30% under setting [1]; 38.3% under setting [2]; 25.2% under setting [3]; 32.9% under setting [4]; 27.8% under setting [5]. Also, the percent labeling under setting [6] is 44%; the percent labeling under setting [12] was 53.3%; the percent labeling under setting [7] was 26.2%; the percent labeling under setting [8] was found to be 20.7%; the percent labeling under setting [9] came out at 17.3%; the percent labeling under setting [10] is 41.1%.
For `CC(=O)Nc1ccc(C)c(NC(=O)CCS)c1`, the percent labeling was 14.2% under setting [1]; 28.8% under setting [2]; 39.8% under setting [3]; 31.5% under setting [4]; 29% under setting [5]; 29% under setting [6]. Further, the percent labeling reads like this: under setting [7], 30.3%; under setting [8], 28.4%; under setting [9], 35.2%; under setting [10], 47.2%.
As to `O=C(CNc1nc(C(F)(F)F)nc2ccccc12)NCCS`, the percent labeling is, setting by setting: under setting [11], 33.4%; under setting [1], 20%; under setting [2], 23.6%; under setting [3], 18.4%; under setting [4], 23.8%; under setting [5], 29.1%. For the same compound, the percent labeling turned out to be 33.8% under setting [6]; 30.4% under setting [12]; 23.6% under setting [7]; 15.8% under setting [8]; 13.6% under setting [9]; 22.7% under setting [10].
As for `O=C(NCCS)c1ccoc1C1(O)CCOCC1`, the percent labeling by setting is: under setting [11], 40%; under setting [1], 22.2%; under setting [2], 43.3%; under setting [3], 25.2%; under setting [4], 40.5%; under setting [5], 31.4%. Moreover, the percent labeling reads like this: under setting [6], 37.2%; under setting [12], 42.5%; under setting [7], 28.7%; under setting [8], 37%; under setting [9], 33.1%; under setting [10], 49.7%.
Turning to `O=C(CCC1NC(=O)N(c2ccc(Cl)cc2)C1=O)NCCS` (stereo not drawn), the percent labeling runs as follows: under setting [11], 38.7%; under setting [1], 16.1%; under setting [2], 31.1%; under setting [3], 29.1%; under setting [4], 36.3%; under setting [5], 23.8%. The compound also showed a percent labeling under setting [6] of 29.9%; a percent labeling under setting [12] of 54.3%; a percent labeling under setting [7] of 21.2%; a percent labeling under setting [8] of 27.5%; a percent labeling under setting [9] of 25.6%; a percent labeling under setting [10] of 32.3%.
In the case of `Cn1c2ccccc2c2cc(C(=O)NCCS)sc21`, the percent labeling is, setting by setting: under setting [11], 32.1%; under setting [1], 18.4%; under setting [2], 14.6%; under setting [3], 9.8%; under setting [4], 20.5%; under setting [5], 8.4%. For the same compound, the percent labeling runs as follows: under setting [6], 55.7%; under setting [12], 27.3%; under setting [7], 16.4%; under setting [8], 15.6%; under setting [9], 11.3%; under setting [10], 19.7%.
Regarding `CN(C)c1nccc(N2CCN(C(=O)CCS)CC2)n1`, the percent labeling worked out at 13.9% under setting [1]; 33.5% under setting [2]; 34.7% under setting [3]; 30.7% under setting [4]; 51.1% under setting [5]; 31.7% under setting [6]. The percent labeling runs as follows: under setting [7], 19.3%; under setting [8], 33.5%; under setting [9], 33.4%; under setting [10], 58.1%.
Consider `O=C(CCS)N(c1cc(F)cc(F)c1)C1CC1`, for which the percent labeling under setting [1] is 25.9%; the percent labeling under setting [2] was determined as 36.9%; the percent labeling under setting [3] was found to be 36.5%; the percent labeling under setting [4] is 23.2%; the percent labeling under setting [5] was found to be 29.7%; the percent labeling under setting [6] worked out at 40.3%. Moreover, the percent labeling under setting [7] worked out at 41.1%, the percent labeling under setting [8] came out at 30.7%, the percent labeling under setting [9] stood at 39.1% and the percent labeling under setting [10] was 51.8%.
As for `CN(C)c1ncnc2c1cc(C(=O)NCCS)n2C`, the percent labeling reads like this: under setting [11], 27%; under setting [1], 21.1%; under setting [2], 22%; under setting [3], 15.9%; under setting [4], 17.1%; under setting [5], 23.1%. Besides, the percent labeling reads like this: under setting [6], 32.2%; under setting [12], 52.8%; under setting [7], 18.7%; under setting [8], 15.7%; under setting [9], 15%; under setting [10], 34.3%.
On to `NC(=O)c1cc2n(n1)CC1(CCN(C(=O)CCS)CC1)OC2`, for which the percent labeling was found to be 20.3% under setting [1]; 32.7% under setting [2]; 43.1% under setting [3]; 31.4% under setting [4]; 41.4% under setting [5]; 23.3% under setting [6]. The same compound displayed a percent labeling under setting [7] of 24.5%, a percent labeling under setting [8] of 29.2%, a percent labeling under setting [9] of 27.6% and a percent labeling under setting [10] of 49.5%.
Consider `O=C(CCS)Nc1cc(F)c(OC(F)F)cc1F`, for which the percent labeling under setting [1] was determined as 19%; the percent labeling under setting [2] worked out at 23.2%; the percent labeling under setting [3] is 26.9%; the percent labeling under setting [4] was 27.2%; the percent labeling under setting [5] was found to be 27.8%; the percent labeling under setting [6] is 56.7%. Moreover, the percent labeling by setting is: under setting [7], 18.1%; under setting [8], 23.7%; under setting [9], 22.4%; under setting [10], 37.9%.
With `O=C(NCCS)C1CCC(NC(=O)C2CC2)CC1` (stereo not drawn), the percent labeling reads like this: under setting [11], 28.2%; under setting [1], 11.9%; under setting [2], 38.4%; under setting [3], 28.5%; under setting [4], 31.4%; under setting [5], 30.6%. This compound also gave a percent labeling under setting [6] of 21%; a percent labeling under setting [12] of 35.9%; a percent labeling under setting [7] of 28.5%; a percent labeling under setting [8] of 34%; a percent labeling under setting [9] of 32%; a percent labeling under setting [10] of 50%.
`Cc1ccc(OC2CCN(C(=O)CCS)CC2)cc1` registered a percent labeling under setting [1] of 14.9%; a percent labeling under setting [2] of 26.7%; a percent labeling under setting [3] of 21.1%; a percent labeling under setting [4] of 22.3%; a percent labeling under setting [5] of 32.4%; a percent labeling under setting [6] of 31.2%. The percent labeling was 15.2% under setting [7], 21.7% under setting [8], 20.1% under setting [9] and 38.1% under setting [10].
As to `O=C(Cn1cnc(-c2ccccc2)cc1=O)NCCS`, the percent labeling was determined as 21.2% under setting [11]; 6.2% under setting [1]; 17.8% under setting [2]; 19.7% under setting [3]; 33.6% under setting [4]; 21.1% under setting [5]. This compound gave a percent labeling under setting [6] of 23.9%; a percent labeling under setting [12] of 35%; a percent labeling under setting [7] of 18.6%; a percent labeling under setting [8] of 19.8%; a percent labeling under setting [9] of 15.6%; a percent labeling under setting [10] of 20.9%.
On to `Cc1ccc(C(=O)NCCS)cc1NC(=O)c1ccccc1`, for which the percent labeling came to 29.8% under setting [11]; 9.8% under setting [1]; 14.6% under setting [2]; 12% under setting [3]; 24.7% under setting [4]; 17.9% under setting [5]. The compound further showed a percent labeling under setting [6] of 22.8%; a percent labeling under setting [12] of 26.7%; a percent labeling under setting [7] of 10.4%; a percent labeling under setting [8] of 17.5%; a percent labeling under setting [9] of 9.9%; a percent labeling under setting [10] of 15.4%.
With `O=C(CN1CCc2ccccc2C1=O)NCCS`, the percent labeling under setting [11] is 37.6%; the percent labeling under setting [1] came to 13.7%; the percent labeling under setting [2] is 32.2%; the percent labeling under setting [3] turned out to be 26%; the percent labeling under setting [4] turned out to be 56.8%; the percent labeling under setting [5] came out at 32.5%. Moreover, the percent labeling reads like this: under setting [6], 24.6%; under setting [12], 37%; under setting [7], 24.7%; under setting [8], 36.7%; under setting [9], 34.7%; under setting [10], 50.9%.
As for `O=C(NCCS)c1ccn2cc(C(F)(F)F)nc2c1`, the percent labeling reads like this: under setting [11], 18.8%; under setting [1], 11.7%; under setting [2], 17.5%; under setting [3], 17.7%; under setting [4], 25.4%; under setting [5], 15.6%. Besides, the percent labeling reads like this: under setting [6], 24.6%; under setting [12], 29.4%; under setting [7], 19%; under setting [8], 16.9%; under setting [9], 14.9%; under setting [10], 26.1%.
As for `COc1ccc(-c2ncc(C(=O)NCCS)s2)cc1OC`, the percent labeling runs as follows: under setting [11], 28.9%; under setting [1], 7.7%; under setting [2], 13%; under setting [3], 13.2%; under setting [4], 10.3%; under setting [5], 0%. Also, the percent labeling under setting [6] came to 26.8%; the percent labeling under setting [12] is 18.4%; the percent labeling under setting [7] came to 5.9%; the percent labeling under setting [8] amounted to 10%; the percent labeling under setting [9] came to 3.2%; the percent labeling under setting [10] came to 9.1%.
